Data on 58 compounds can be found in the supplement of paper PMC9446081.

About 220 (0.56%) of roughly 39,000 compounds showed activity. The list shows a part of the results.
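Note: static incubation at 37 °C against the wild-type strain, values averaged over two biological replicates.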

This assay has as its system Escherichia coli K-12 BW25113. As to the kind of experiment: relative growth (OD600 normalised to plate interquartile mean) (fraction); higher = less growth inhibition, active = 0.2 or less. The conditions noted are these: 50 µM; LB; incubation time: overnight (16-24 h).
For the compound `CNC[C@@H]1OCCCC[C@H](C)Oc2ccc(NS(=O)(=O)c3cn(C)cn3)cc2C(=O)N([C@@H](C)CO)C[C@H]1C`, the relative growth was inactive: 1.

Regarding `Nc1nccnc1Cl`, the relative growth was inactive: 0.997.

`CCNC(=O)C[C@H]1C=C[C@H](NC(=O)C2CC2)[C@H](CO)O1`: the relative growth is inactive: 1.01.

In the case of `C[C@H](CO)N1C[C@H](C)[C@@H](CN(C)C(=O)Nc2cccc3ccccc23)Oc2c(NS(=O)(=O)c3ccccc3)cccc2C1=O`, the relative growth is inactive: 0.99.

`O=C1NCc2ccccc21`: the relative growth was inactive: 1.04.

In the case of `Cn1cc(-c2cc3c(N4CCN(c5ncc([C@@](C)(N)c6ccc(F)cc6)cn5)CC4)ncnn3c2)cn1`, the relative growth is inactive: 0.955.

Turning to `C[C@@H]1CN([C@@H](C)CO)C(=O)c2cc(NC(=O)Nc3ccc4c(c3)OCO4)ccc2O[C@H]1CN(C)C(=O)Nc1ccc(C(F)(F)F)cc1`, the relative growth was inactive: 1.

Regarding `C[C@@H]1CCCCO[C@H](CN(C)C(=O)c2ccncc2)[C@H](C)CN([C@H](C)CO)C(=O)c2cc(NS(=O)(=O)c3cn(C)cn3)ccc2O1`, the relative growth was inactive: 0.974.

With `Cc1noc(C)c1S(=O)(=O)Nc1ccc2c(c1)C(=O)N([C@H](C)CO)C[C@H](C)[C@@H](CN(C)C(=O)Nc1ccccc1)OCCCC[C@H](C)O2`, the relative growth was inactive: 0.984.

On to `COc1ccc(S(=O)(=O)Nc2cccc3c2O[C@H](CN(C)S(=O)(=O)c2cn(C)cn2)[C@H](C)CN([C@@H](C)CO)C3=O)cc1`, for which the relative growth was inactive: 1.01.

On to `C[C@H](NC(=O)N(C)C[C@@H]1OCc2ccccc2-c2c(n(C)c3ccccc23)C(=O)N([C@H](C)CO)C[C@H]1C)c1ccccc1`, for which the relative growth is inactive: 0.982.

Take `C[C@H](CO)N1C[C@H](C)[C@@H](CN(C)Cc2ccc(Oc3ccccc3)cc2)Oc2ccc(NC(=O)CCCN(C)C)cc2C1=O`: the relative growth was inactive: 1.

With `NCC[C@H]1CC[C@@H](NC(=O)C2CCCCC2)[C@H](CO)O1`, the relative growth is inactive: 1.

Consider `O=C([C@@H]1[C@@H](CO)[C@@H]2Cn3c(cccc3=O)[C@H]1N2S(=O)(=O)c1ccccc1F)N1CCOCC1`, for which the relative growth is inactive: 0.995.

As for `CCCC#Cc1cnc2c(c1)C(=O)N([C@H](C)CO)C[C@H](C)[C@@H](CN(C)S(=O)(=O)c1cn(C)cn1)O2`, the relative growth is inactive: 1.01.

For the compound `C[C@@H]1CN([C@@H](C)CO)C(=O)c2cc(NC(=O)C3CC3)ccc2O[C@H]1CN(C)S(=O)(=O)c1ccc(F)cc1`, the relative growth is inactive: 0.984.

`CO[C@H]1CN(C)C(=O)c2ccc(NC(=O)C3CC3)cc2OC[C@@H](C)N(C(=O)C2CCOCC2)C[C@H]1C`: the relative growth was inactive: 1.02.

For the compound `COc1ccc(NC(=O)N(C)C[C@@H]2Oc3ccc(NS(C)(=O)=O)cc3CC(=O)N([C@@H](C)CO)C[C@H]2C)cc1`, the relative growth was inactive: 0.988.

In the case of `C[C@@H]1CN([C@H](C)CO)C(=O)Cc2cc(NC(=O)Cc3ccccc3)ccc2O[C@@H]1CN(C)S(=O)(=O)c1ccc(F)cc1`, the relative growth is inactive: 1.

As to `CN(Cc1[nH]nc2c1CCCC2)C(=O)Cc1n[nH]c(=O)[nH]1`, the relative growth is inactive: 0.992.

As to `N[C@@H]1CC[C@@H](CCn2cc(C3CCCCC3)nn2)O[C@H]1CO`, the relative growth was inactive: 1.04.

Consider `C[C@@H]1CN([C@H](C)CO)C(=O)Cc2cc(NC(=O)CCN3CCOCC3)ccc2O[C@H]1CN(C)S(=O)(=O)c1cn(C)cn1`, for which the relative growth was inactive: 0.985.

Regarding `O=C(Cc1ccccn1)NCC[C@H]1CC[C@@H](NC(=O)CN2CCOCC2)[C@@H](CO)O1`, the relative growth was inactive: 1.

Take `Cc1cc(C(=O)O)c(=O)[nH]c1C`: the relative growth is inactive: 0.956.

For the compound `Cc1ccc(S(=O)(=O)N(C)C[C@H]2OCCCC[C@H](C)Oc3ccc(NC(=O)Nc4c(C)noc4C)cc3C(=O)N([C@H](C)CO)C[C@H]2C)cc1`, the relative growth was inactive: 1.01.

Consider `COc1ccc(S(=O)(=O)N[C@@H]2CC[C@@H](CC(=O)N3CCC(Cc4ccccc4)CC3)O[C@H]2CO)cc1`, for which the relative growth is inactive: 0.987.

Take `CC1(C(=O)[O-])CCC2(C)CCC3(C)C(=CC(=O)C4C5(C)CCC(OC(=O)CCC(=O)[O-])C(C)(C)C5CCC43C)C2C1.[Na+].[Na+]` (stereo not drawn): the relative growth is inactive: 1.06.

For the compound `C[C@@H]1CCCCO[C@H](CN(C)Cc2ccccc2)[C@H](C)CN([C@H](C)CO)C(=O)c2cc(NC(=O)c3ccccc3)ccc2O1`, the relative growth was inactive: 1.

For the compound `CC(C)NC(=O)N(C)C[C@@H]1OCCCC[C@H](C)Oc2ccc(NC(=O)Nc3ccccc3)cc2C(=O)N([C@@H](C)CO)C[C@H]1C`, the relative growth is inactive: 0.983.

Consider `Cc1ccc(S(=O)(=O)N(C)C[C@H]2Oc3ccc(NC(=O)Nc4ccc(C(F)(F)F)cc4)cc3C(=O)N([C@@H](C)CO)C[C@@H]2C)cc1`, for which the relative growth was inactive: 0.984.

With `C[C@@H]1CN([C@H](C)CO)C(=O)Cc2cc(NC(=O)Cn3cnnn3)ccc2O[C@H]1CN(C)Cc1ccc(C(=O)O)cc1`, the relative growth was inactive: 1.

On to `C[C@@H]1CN([C@@H](C)CO)C(=O)c2cc(NC(=O)NC3CCCCC3)ccc2O[C@@H](C)CCCCO[C@@H]1CN(C)C(=O)Cc1ccccc1`, for which the relative growth is inactive: 1.02.

For the compound `O=C(O)C1=CO[C@@H](O[C@@H]2O[C@H](CO)[C@@H](O)[C@H](O)[C@H]2O)[C@@H]2C(CO)=CC[C@H]12`, the relative growth is inactive: 0.976.

On to `CCCC#Cc1ccc2c(c1)O[C@@H](CN(C)C(=O)c1cnccn1)[C@H](C)CN([C@@H](C)CO)S2(=O)=O`, for which the relative growth was inactive: 1.

Consider `Cc1noc(C)c1NC(=O)Nc1ccc2c(c1)C(=O)N([C@H](C)CO)C[C@@H](C)[C@H](CN(C)S(=O)(=O)c1cccs1)OCCCC[C@@H](C)O2`, for which the relative growth was inactive: 0.984.

For the compound `O=C(C[C@H]1C[C@@H]2c3cc(NC(=O)c4ccc5c(c4)OCO5)ccc3O[C@@H]2[C@@H](CO)O1)NCCN1CCCCC1`, the relative growth was inactive: 1.02.

With `COc1ccc(NC(=O)Nc2ccc3c(c2)C(=O)N([C@H](C)CO)C[C@H](C)[C@H](CN(C)Cc2ccc(Cl)c(Cl)c2)O3)cc1`, the relative growth was inactive: 1.

`C[C@@H]1CCCCO[C@@H](CN(C)Cc2ccc(Cl)c(Cl)c2)[C@H](C)CN([C@@H](C)CO)C(=O)c2cc(NC(=O)NC3CCCCC3)ccc2O1`: the relative growth is inactive: 1.01.

For `C[C@@H]1CCCCO[C@@H](CN(C)C(=O)CCC(F)(F)F)[C@H](C)CN([C@H](C)CO)C(=O)c2cc(NS(=O)(=O)c3ccc(Cl)cc3)ccc2O1`, the relative growth is inactive: 0.995.

On to `C[C@@H]1CN([C@@H](C)CO)C(=O)c2cc(NC(=O)Cc3ccccc3)ccc2O[C@@H](C)CCCCO[C@@H]1CN(C)C(=O)Nc1ccccc1`, for which the relative growth was inactive: 0.982.

`O=C(C[C@@H]1C[C@H]2c3cc(NC(=O)Nc4ccc(C(F)(F)F)cc4)ccc3O[C@H]2[C@H](CO)O1)NC1CCCCC1`: the relative growth was inactive: 1.01.

As to `C[C@@H]1CN([C@H](C)CO)S(=O)(=O)c2ccc(C3=CCCC3)cc2O[C@@H]1CN(C)S(=O)(=O)c1cn(C)cn1`, the relative growth was inactive: 1.02.

Take `CCCN(C)C[C@@H]1Oc2cc(C#Cc3cccc(OC)c3)ccc2S(=O)(=O)N([C@@H](C)CO)C[C@@H]1C`: the relative growth was inactive: 0.996.

`C[C@@H]1CN([C@@H](C)CO)C(=O)c2cccc(NC(=O)Nc3cccc4ccccc34)c2O[C@H]1CN(C)S(=O)(=O)c1ccc(Cl)cc1`: the relative growth is inactive: 0.991.

Consider `C[C@@H]1CN([C@H](C)CO)C(=O)Cc2cc(NC(=O)Nc3cccc4ccccc34)ccc2O[C@@H]1CN(C)S(=O)(=O)c1cccs1`, for which the relative growth is inactive: 0.985.

With `C[C@@H]1CN([C@H](C)CO)C(=O)c2cc(NC(=O)CCC(F)(F)F)ccc2O[C@@H](C)CCCCO[C@H]1CN(C)C(=O)Nc1ccc(F)cc1`, the relative growth is inactive: 1.01.

Turning to `COc1ccccc1CN1C[C@@H](C)[C@H](OC)CN(C)C(=O)c2ccc(NC(=O)Nc3ccccc3OC)cc2OC[C@H]1C`, the relative growth is inactive: 1.02.

With `C[C@H]1CCCCO[C@@H](CN(C)C(=O)Nc2ccc(F)cc2)[C@@H](C)CN([C@@H](C)CO)C(=O)c2cc(NC(=O)Nc3ccc(C(F)(F)F)cc3)ccc2O1`, the relative growth was inactive: 1.01.

For the compound `C[C@@H]1CN([C@H](C)CO)C(=O)c2cccc(NS(=O)(=O)c3cccs3)c2O[C@@H]1CN(C)S(C)(=O)=O`, the relative growth is inactive: 1.03.

In the case of `COc1ccc(NC(=O)N(C)C[C@@H]2OCCCC[C@@H](C)Oc3ccc(NC(=O)Cc4ccccc4)cc3C(=O)N([C@@H](C)CO)C[C@H]2C)cc1`, the relative growth is inactive: 0.987.

Consider `COc1ccc(S(=O)(=O)N(C)C[C@@H]2Oc3ccc(NC(=O)c4ccncc4)cc3CC(=O)N([C@@H](C)CO)C[C@H]2C)cc1`, for which the relative growth was inactive: 1.02.

For `C[C@@H]1CCCCO[C@@H](CN(C)C(=O)Nc2ccc(F)cc2)[C@@H](C)CN([C@H](C)CO)C(=O)c2cc(NC(=O)NC3CCCCC3)ccc2O1`, the relative growth is inactive: 1.

Turning to `COc1ccc(CN(C)C[C@@H]2OCCCC[C@H](C)Oc3ccc(NS(=O)(=O)c4c(C)noc4C)cc3C(=O)N([C@H](C)CO)C[C@H]2C)cc1`, the relative growth is inactive: 1.

For `C[C@H]1CN([C@@H](C)CO)C(=O)Cc2cc(NC(=O)CCN3CCOCC3)ccc2O[C@H]1CN(C)Cc1ccc2c(c1)OCO2`, the relative growth was inactive: 0.965.

Take `C[C@H](CO)N1C[C@H](C)[C@H](CN(C)C(=O)Nc2ccccc2)Oc2ccc(NC(=O)Nc3ccc(C(F)(F)F)cc3)cc2C1=O`: the relative growth is inactive: 1.01.

On to `COc1ccc(NC(=O)Nc2ccc3c(c2)C(=O)N([C@@H](C)CO)C[C@H](C)[C@@H](CN(C)C(=O)Nc2cccc4ccccc24)OCCCC[C@@H](C)O3)cc1`, for which the relative growth was inactive: 1.02.

As for `C[C@H]1CN([C@@H](C)CO)C(=O)c2cccc(NS(=O)(=O)c3ccccc3)c2O[C@H]1CN(C)S(=O)(=O)c1ccccc1`, the relative growth is inactive: 0.999.

For `CCS(=O)(=O)Nc1ccc2c(c1)C(=O)N(C)[C@@H]1CC[C@H](CC(=O)NCc3ccc(OC)cc3)O[C@@H]1CO2`, the relative growth is inactive: 0.988.
